Assay results published in PMC2799460 (Environmental Health Perspectives, 2009).

Columns and labels:
[1] = target: T1, human carboxylesterase CES3 (Homo sapiens, UniProt Q6UWW8); assay: human CES3 enzyme inhibition assay (CMNA substrate); assay type: biochemical; settings: recombinant partially purified enzyme, CMNA 50 μM, counterscreen; mean ± SD
T1 construct: made in house; host or cells: baculovirus-insect cells
T1 sequence (Q6UWW8 27-571): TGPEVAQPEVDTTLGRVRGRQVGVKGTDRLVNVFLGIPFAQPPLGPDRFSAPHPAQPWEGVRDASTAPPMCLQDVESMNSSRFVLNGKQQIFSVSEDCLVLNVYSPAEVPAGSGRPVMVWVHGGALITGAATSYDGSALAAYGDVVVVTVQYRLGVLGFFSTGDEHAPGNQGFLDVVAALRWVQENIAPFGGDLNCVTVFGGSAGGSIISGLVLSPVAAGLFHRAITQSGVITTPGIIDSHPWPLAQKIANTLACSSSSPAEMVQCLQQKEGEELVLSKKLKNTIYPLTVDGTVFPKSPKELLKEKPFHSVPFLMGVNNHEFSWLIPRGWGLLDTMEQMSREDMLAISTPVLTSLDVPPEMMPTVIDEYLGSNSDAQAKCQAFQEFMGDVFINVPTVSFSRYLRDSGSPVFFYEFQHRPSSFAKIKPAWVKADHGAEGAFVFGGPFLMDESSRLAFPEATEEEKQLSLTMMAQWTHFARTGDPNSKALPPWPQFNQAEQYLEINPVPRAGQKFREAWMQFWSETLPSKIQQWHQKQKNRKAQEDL

[2] = target: T2, type 1 ryanodine receptor (RyR1) (Oryctolagus cuniculus, UniProt P11716); set-up: method as in Ahn et al. 2008; settings: previously shown; ref Ahn et al. 2008; cited from earlier work
T2 construct: Membranes enriched in ryanodine receptors (RyRs) were obtained either from adult rabbit skeletal muscle; from tissue; host or cells: adult rabbit skeletal muscle membranes

[3] = target: type 2 ryanodine receptor (RyR2) (Rattus norvegicus, UniProt B0LPN4); assay: [3H]Ry binding to RyR2 (ventricular muscle membranes); settings: 5 μM compound
[4] = target: T2, type 1 ryanodine receptor (RyR1); assay type: binding, rabbit; settings: 5 μM compound
[5] = target: T3, human carboxylesterase CES2 (Homo sapiens, UniProt O00748); assay: biochemical
T3 construct: made in house; host or cells: baculovirus-insect cells
T3 sequence (O00748 27-559): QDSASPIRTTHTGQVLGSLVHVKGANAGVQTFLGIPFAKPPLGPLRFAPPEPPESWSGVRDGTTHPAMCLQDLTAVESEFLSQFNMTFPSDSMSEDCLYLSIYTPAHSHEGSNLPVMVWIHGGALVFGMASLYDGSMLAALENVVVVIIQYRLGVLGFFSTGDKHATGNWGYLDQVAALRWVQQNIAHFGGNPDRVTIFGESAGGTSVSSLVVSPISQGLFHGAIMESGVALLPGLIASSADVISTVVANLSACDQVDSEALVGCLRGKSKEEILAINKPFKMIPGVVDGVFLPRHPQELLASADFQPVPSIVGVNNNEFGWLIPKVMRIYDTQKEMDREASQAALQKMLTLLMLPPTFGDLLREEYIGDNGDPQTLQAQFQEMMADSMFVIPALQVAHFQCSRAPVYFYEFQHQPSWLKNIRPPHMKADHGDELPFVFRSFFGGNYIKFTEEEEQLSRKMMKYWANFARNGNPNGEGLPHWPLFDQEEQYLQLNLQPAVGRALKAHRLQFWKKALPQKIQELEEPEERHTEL

T2 sequence (P11716 whole entry): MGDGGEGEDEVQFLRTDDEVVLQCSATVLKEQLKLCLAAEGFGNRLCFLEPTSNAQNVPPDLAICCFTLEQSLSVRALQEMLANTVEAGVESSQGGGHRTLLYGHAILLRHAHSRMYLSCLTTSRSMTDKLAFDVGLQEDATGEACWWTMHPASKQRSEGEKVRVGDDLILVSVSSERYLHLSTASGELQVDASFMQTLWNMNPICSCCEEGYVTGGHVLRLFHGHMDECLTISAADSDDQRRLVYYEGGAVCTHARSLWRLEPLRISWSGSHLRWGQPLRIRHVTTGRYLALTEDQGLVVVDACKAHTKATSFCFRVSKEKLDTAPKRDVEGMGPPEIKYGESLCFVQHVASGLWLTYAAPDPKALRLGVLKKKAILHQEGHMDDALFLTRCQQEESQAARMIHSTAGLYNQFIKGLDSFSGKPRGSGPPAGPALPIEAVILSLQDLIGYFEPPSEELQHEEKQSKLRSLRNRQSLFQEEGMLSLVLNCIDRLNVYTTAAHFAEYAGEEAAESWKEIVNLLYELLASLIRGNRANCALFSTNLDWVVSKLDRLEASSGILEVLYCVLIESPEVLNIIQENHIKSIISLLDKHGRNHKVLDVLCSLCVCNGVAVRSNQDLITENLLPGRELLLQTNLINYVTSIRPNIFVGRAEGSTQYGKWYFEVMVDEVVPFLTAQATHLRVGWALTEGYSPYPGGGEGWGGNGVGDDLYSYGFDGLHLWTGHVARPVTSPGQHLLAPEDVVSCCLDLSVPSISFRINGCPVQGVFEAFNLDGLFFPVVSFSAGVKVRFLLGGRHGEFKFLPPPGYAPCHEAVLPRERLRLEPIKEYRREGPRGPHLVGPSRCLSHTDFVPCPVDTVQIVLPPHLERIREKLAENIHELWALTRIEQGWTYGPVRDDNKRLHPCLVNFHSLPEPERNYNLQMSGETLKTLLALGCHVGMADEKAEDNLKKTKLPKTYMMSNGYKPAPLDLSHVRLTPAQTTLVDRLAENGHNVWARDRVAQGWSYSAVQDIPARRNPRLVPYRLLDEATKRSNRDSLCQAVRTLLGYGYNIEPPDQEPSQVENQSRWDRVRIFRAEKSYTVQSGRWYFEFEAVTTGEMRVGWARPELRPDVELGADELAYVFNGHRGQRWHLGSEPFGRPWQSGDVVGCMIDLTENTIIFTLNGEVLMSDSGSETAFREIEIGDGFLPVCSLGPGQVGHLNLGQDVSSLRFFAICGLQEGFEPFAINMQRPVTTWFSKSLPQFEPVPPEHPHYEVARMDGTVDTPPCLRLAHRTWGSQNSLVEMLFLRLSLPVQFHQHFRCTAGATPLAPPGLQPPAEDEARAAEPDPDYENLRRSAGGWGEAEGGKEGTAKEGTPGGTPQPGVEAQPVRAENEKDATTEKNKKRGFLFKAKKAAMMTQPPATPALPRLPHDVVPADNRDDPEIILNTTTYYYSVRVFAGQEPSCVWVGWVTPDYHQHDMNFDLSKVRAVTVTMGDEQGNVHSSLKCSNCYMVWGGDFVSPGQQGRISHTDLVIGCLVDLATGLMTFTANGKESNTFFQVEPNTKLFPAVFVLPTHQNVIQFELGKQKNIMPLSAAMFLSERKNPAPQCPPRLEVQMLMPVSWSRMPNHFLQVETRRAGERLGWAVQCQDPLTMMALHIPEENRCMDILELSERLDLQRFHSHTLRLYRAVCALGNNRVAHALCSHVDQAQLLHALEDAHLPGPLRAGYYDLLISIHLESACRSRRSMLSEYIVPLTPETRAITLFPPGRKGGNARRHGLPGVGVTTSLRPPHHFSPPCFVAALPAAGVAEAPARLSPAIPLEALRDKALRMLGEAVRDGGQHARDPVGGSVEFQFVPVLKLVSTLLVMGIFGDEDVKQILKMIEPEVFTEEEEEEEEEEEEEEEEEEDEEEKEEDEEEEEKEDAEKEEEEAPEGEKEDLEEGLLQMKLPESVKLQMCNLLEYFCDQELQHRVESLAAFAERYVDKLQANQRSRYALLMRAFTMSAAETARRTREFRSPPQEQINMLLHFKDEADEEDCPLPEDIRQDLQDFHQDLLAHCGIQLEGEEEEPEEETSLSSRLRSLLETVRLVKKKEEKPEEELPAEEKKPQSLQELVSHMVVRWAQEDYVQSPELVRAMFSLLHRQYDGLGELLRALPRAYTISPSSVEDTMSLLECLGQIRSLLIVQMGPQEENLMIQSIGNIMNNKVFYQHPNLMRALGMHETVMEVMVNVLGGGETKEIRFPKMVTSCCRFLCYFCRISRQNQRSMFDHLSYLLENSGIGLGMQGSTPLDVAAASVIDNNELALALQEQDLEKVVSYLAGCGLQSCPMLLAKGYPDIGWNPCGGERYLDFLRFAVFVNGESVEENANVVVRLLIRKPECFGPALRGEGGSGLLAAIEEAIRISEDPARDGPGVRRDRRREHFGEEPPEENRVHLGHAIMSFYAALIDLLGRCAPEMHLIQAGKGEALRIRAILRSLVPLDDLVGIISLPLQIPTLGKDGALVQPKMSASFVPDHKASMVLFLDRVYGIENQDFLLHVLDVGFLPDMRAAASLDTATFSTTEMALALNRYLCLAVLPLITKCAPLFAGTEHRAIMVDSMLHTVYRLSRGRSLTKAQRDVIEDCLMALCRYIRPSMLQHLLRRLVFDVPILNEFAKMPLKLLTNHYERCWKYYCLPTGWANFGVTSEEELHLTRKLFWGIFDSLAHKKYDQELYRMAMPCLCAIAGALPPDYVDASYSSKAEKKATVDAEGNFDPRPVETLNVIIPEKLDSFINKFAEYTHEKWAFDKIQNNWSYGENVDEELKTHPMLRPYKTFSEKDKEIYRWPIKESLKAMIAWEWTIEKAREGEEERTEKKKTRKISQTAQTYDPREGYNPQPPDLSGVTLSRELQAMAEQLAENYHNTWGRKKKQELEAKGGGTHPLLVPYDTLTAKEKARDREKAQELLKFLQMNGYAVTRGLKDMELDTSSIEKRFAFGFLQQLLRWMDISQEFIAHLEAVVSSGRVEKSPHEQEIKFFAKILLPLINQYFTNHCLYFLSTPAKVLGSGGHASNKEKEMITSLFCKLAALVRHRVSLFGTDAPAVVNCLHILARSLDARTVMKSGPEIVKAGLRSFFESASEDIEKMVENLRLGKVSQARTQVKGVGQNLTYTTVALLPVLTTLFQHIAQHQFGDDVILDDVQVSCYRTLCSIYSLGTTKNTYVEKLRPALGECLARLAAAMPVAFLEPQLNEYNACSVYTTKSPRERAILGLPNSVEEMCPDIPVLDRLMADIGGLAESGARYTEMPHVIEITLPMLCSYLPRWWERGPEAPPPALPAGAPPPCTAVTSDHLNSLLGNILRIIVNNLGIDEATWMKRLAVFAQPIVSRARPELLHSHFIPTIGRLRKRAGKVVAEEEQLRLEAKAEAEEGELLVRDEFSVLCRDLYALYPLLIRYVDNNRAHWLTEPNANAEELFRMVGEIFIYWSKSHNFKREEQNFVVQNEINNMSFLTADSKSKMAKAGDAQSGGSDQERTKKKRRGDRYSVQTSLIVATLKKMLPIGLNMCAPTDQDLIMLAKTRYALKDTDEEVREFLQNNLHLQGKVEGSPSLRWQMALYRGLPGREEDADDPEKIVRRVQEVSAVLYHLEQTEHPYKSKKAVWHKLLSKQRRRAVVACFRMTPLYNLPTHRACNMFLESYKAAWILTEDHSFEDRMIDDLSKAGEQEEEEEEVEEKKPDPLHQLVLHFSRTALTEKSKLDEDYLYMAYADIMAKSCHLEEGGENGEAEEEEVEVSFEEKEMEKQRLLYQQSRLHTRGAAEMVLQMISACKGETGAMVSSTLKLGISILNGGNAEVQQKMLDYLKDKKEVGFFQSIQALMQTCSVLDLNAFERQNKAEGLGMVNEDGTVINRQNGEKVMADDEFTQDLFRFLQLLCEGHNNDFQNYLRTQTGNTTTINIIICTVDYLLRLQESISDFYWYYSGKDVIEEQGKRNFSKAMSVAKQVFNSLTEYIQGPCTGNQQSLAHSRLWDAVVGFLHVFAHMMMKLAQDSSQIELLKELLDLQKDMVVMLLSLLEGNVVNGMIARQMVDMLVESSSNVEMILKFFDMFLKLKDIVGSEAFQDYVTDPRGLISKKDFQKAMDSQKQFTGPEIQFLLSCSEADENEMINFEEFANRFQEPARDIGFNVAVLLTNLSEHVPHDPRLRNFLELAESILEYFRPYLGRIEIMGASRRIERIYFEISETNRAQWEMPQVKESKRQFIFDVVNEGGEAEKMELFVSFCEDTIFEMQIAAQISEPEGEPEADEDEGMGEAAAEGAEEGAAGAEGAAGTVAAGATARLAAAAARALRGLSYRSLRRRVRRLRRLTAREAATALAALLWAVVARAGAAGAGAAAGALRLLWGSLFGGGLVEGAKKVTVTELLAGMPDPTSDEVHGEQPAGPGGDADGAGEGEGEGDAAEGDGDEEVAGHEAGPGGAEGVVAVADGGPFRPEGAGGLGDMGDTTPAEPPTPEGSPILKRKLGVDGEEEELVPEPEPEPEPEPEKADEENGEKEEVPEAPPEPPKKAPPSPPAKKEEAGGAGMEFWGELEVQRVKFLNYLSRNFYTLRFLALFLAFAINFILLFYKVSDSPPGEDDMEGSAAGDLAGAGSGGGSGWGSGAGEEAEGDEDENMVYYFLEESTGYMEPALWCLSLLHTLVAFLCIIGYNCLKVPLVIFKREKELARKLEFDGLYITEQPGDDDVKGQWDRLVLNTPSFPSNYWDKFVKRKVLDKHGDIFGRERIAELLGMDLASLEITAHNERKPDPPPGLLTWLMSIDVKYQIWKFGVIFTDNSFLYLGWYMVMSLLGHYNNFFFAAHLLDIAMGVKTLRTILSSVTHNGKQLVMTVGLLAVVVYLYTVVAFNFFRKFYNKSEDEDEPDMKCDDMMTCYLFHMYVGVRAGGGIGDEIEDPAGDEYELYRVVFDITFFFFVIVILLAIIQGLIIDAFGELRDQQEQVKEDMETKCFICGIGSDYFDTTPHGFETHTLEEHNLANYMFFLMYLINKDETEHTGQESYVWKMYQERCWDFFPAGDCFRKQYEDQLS

## CCOP(=S)(OCC)Oc1cc(C)nc(N(CC)CC)n1 [Primiphos-ethyl]
[1]
  IC50: 180 ± 20 nM

## Oc1cc(Cl)ccc1Oc1ccc(Cl)cc1Cl [Triclosan, triclosan]
[2]
  effect on [3H]Ry binding to RyR1 (earlier work): increase

## CC1(C)C(C=C(Cl)Cl)C1C(=O)OC(C#N)c1cccc(Oc2ccccc2)c1 (stereo not drawn) [α-cypermethrin]
[3]
  effect on [3H]Ry binding to RyR2 (counterscreen): no significant effect

## CC1(C)[C@H](C(=O)O[C@H](C#N)c2cccc(Oc3ccccc3)c2)[C@@H]1C=C(Br)Br [deltamethrin]
[3]
  effect on [3H]Ry binding to RyR2 (counterscreen): no significant effect

## O=S(=O)(NC1CCCCC1)c1nc2ccccc2s1 [N-cyclohexyl-2-benzothiazyl sulfonamide]
[4]
  effect on [3H]Ry binding to RyR1 (counterscreen): no significant effect
[3]
  effect on [3H]Ry binding to RyR2 (counterscreen): no significant effect

## O=P(Oc1ccccc1)(Oc1ccccc1)Oc1ccccc1 [TPP, triphenyl phosphate]
[5]
  IC50: 50 ± 2 nM

## COC(=O)C=C(C)OP(=O)(OC)OC [Phosdrin, phosdrin]
[1]
  IC50: 1.1 ± 0.1 nM

## CC1(C)C(C=C(Cl)Cl)C1C(=O)OC(C#N)c1ccc(F)c(Oc2ccccc2)c1 (stereo not shown) [baythroid]
[4]
  effect on [3H]Ry binding to RyR1 (counterscreen): no significant effect
[3]
  effect on [3H]Ry binding to RyR2 (counterscreen): no significant effect
